From PubChem BioAssay AID1460 (National Center for Advancing Translational Sciences (NCATS), 2008)
Screen size: about 270,000 compounds; about 5,800 (2.1%) were called active. Inconclusive means that the source gave no clear call. Such entries were picked first, then a sample of the others. Calls follow the shape of the dose curve; as a rule, active = well fitted inhibition curve with a large enough effect; inconclusive = small, poorly fitted or top-dose-only effect; inactive = flat fitted curve, though single readings scatter. A potency beside an inconclusive call is a rough fit, not a confirmed value.

Each compound was assayed against Microtubule-associated protein tau (Homo sapiens) (UniProt P10636) (assay: qHTS for Inhibitors of Tau Fibril Formation, Thioflavin T Binding). Details: recombinant tau K18 P301L (four-repeat tau fragment), heparin-induced fibrillization, ThT fluorescence; series mostly up to 57.4 µM.
Sequence of UniProt P10636 (P10636 whole entry, looked up, the tested form may be a part): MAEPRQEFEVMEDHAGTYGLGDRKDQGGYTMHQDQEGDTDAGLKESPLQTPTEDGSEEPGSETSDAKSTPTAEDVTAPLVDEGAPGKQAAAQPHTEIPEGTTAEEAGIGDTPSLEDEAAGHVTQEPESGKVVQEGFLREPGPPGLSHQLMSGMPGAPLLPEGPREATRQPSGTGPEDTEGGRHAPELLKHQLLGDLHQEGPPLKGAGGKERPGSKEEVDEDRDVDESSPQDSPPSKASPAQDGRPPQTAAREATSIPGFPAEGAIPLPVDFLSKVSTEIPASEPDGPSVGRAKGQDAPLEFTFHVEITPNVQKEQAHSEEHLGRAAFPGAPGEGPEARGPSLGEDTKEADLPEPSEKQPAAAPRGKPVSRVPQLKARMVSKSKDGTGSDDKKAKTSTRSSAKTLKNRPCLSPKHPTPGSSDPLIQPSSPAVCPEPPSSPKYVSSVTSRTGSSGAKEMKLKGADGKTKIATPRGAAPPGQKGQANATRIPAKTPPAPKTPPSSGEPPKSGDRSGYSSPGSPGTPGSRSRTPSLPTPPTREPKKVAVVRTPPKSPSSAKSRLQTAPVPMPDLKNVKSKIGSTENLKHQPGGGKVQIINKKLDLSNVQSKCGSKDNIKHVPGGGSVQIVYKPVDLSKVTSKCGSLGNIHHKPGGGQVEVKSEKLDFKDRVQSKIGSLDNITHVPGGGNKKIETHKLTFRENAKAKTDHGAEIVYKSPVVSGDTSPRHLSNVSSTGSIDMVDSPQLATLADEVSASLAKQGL
Procedure, shortened: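 In this qHTS, human K18 P301L tau is incubated with compound and heparin for 6 hr at 37 C, and Thioflavin T fluorescence then reports fibril load.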
Also: nearly all actives have a fitted effect of over 55% in size.
Potency is read from the fitted curve at half-maximal effect; tags tell the direction and shape of the fitted curve.

Row | Compound | Potency
1 | Cc1cccc(OCC(=O)NC(Cc2c[nH]c3ccccc23)C(=O)O)c1C (stereo not given) | inconclusive: 44.7 µM [inhibitor, single point]
2 | CCCCC[n+]1ccn(-c2nc3ccccc3nc2[N-]S(=O)(=O)c2ccc(C)cc2)c1 | inactive
3 | COC(=O)C1CCN(C(=O)COC(=O)CC(NC(C)=O)c2ccccc2)CC1 (stereo not given) | inactive
4 | c1cc2[nH]snc2c2nc(C3CC3)nc12 | inconclusive: 28.2 µM [inhibitor, partial curve]
5 | COc1cccc(NC(=O)Nc2nnc(-c3ccccc3SCc3ccccc3)s2)c1 | inactive
6 | CCc1nonc1NC(=O)c1oc2ccc(F)cc2c1C | inactive
7 | O=S(=O)(C/C(=C/CO)S(=O)(=O)c1ccccc1)c1ccccc1 | active: 3.55 µM
8 | O=C(/C=C/c1ccccc1)Nc1ccc2c(c1)OCCO2 | inconclusive: 28.2 µM [inhibitor, single point]
9 | O=C(Nc1cccc(Cl)c1)Nc1ccc(Br)cc1F | inconclusive: 14.1 µM [activator, partial curve]
10 | CN1CCN(c2ncc3c(n2)CCN(Cc2cc(Br)cs2)C3)CC1 | inconclusive: 20 µM [inhibitor, single point]
11 | CC1Cn2c(nc(=O)c3c2NCN(CCc2ccccc2)C3)S1 (stereo not given) | inactive
12 | C=CCSC1=C(C#N)C(c2ccccc2Cl)C(C(=O)c2cccs2)C(O)(C(F)(F)F)N1 (stereo not given) | inconclusive: 31.6 µM [inhibitor, partial curve]
13 | C=CCOCCN1C(=O)C2C(c3ccccc3)C=CC(c3ccccc3)C2C1=O (stereo not given) | inconclusive: 15.8 µM [inhibitor, single point]
14 | CCOc1ccc(-c2cnc(NCc3ccc(C(F)(F)F)cc3)n2C)cc1 | inconclusive: 11.2 µM [inhibitor, partial curve]
15 | CC(Sc1nc(N2CCCCC2)c2c(c1C#N)CCCC2)C(=O)O (stereo not given) | inconclusive: 5.62 µM [inhibitor, partial curve]
16 | O=C1NC(=S)CN1c1ccccc1 | active: 31.6 µM
17 | O=C(C1CCCN(S(=O)(=O)c2cccc3cccnc23)C1)N1CCN(c2ccc(F)cc2)CC1 (stereo not given) | inconclusive: 28.2 µM [inhibitor, partial curve]
18 | Cc1ccc(CN(C(=O)c2ccco2)C(C(=O)NC2CCCC2)c2cccnc2)cc1 (stereo not given) | inactive
19 | COc1ccc(/C=C(/C#N)C(=O)Nc2ccc(O)cc2)cc1C(=O)O | inconclusive: 20 µM [inhibitor, partial curve]
20 | O=C(Nc1ccc(N2CCN(C(=O)c3ccco3)CC2)cc1)C(c1ccccc1)c1ccccc1 | inconclusive: 20 µM [inhibitor, partial curve]
21 | COc1ccc(C)cc1NC(=O)c1[nH]c(C)c(C(C)=O)c1C | inconclusive: 22.4 µM [inhibitor, single point]
22 | Cc1cccc(OCCCCn2c(C3CC(=O)N(c4ccccc4Cl)C3)nc3ccccc32)c1 (stereo not given) | inconclusive: 0.708 µM [inhibitor, partial curve]
23 | Cc1nn2c(NCc3cccnc3)c3c(nc2c1-c1ccccc1)CCC3 | inconclusive: 17.8 µM [inhibitor, partial curve, poor fit]
24 | Cn1c(=O)n(C/C=C/c2ccccc2)c(=O)c2c1nc1n2CCN1c1ccc(F)cc1 | inactive

Row | Compound | Potency
25 | CN1/C(=C\C(=O)CSc2ncn[nH]2)C(C)(C)c2ccccc21 | inconclusive: 11.2 µM [inhibitor, partial curve]
26 | Cc1ccc(NS(=O)(=O)c2ccc3c(c2)NC(=O)C(C)C(=O)N3)cc1F (stereo not given) | inactive
27 | O=C1c2ccccc2C(=O)C1(CO)c1ccccc1 | inconclusive: 12.6 µM [inhibitor, partial curve, poor fit]
28 | O=C(NCCC(c1ccccc1)c1ccccc1)c1ccc(Br)o1 | inconclusive: 17.8 µM [inhibitor, single point]
29 | CCCC(=O)NCCc1c2n(c3ccc(OC)cc13)Cc1ccccc1-2 | inconclusive: 6.31 µM [inhibitor, full curve]
30 | Cc1cccc(Nc2nnc(SCC(=O)Nc3ncc(C(F)(F)F)cc3Cl)s2)c1C | inconclusive: 15.8 µM [inhibitor, partial curve]
31 | CCSc1nnc(NC(=O)c2cccnc2Cl)s1 | inactive
32 | CSC(=S)N/N=C/c1ccccc1 | inactive
33 | O=C(CSc1n[nH]c(=O)[nH]c1=O)Nc1ccc2c(c1)C(=O)c1ccccc1C2=O | active: 10 µM
34 | Cc1cc(C)c2nc(N3CCCC(C(=O)NCc4cccc(Cl)c4)C3)sc2c1 (stereo not given) | inconclusive: 10 µM [inhibitor, partial curve]
35 | COc1ccccc1CNC(=S)Nc1ccc2nc(N3CCN(C)CC3)cc(C)c2c1 | inconclusive: 20 µM [inhibitor, partial curve]
36 | CCn1c(-c2csc3ccccc23)n[nH]c1=S | inactive
37 | CC(C)CN(CC(C)C)C(=O)C1CCCN(S(=O)(=O)c2ccc3c(c2)oc(=O)n3C)C1 (stereo not given) | inactive
38 | COc1cccc(NC(=O)c2nn(-c3ccc(C)cc3)c(=O)n(C)c2=O)c1 | inconclusive: 0.1 µM [inhibitor, full curve, poor fit]
39 | COc1cc(NC(=O)c2cc3ccccc3cc2O)c(OC)cc1Cl | inconclusive: 1.26 µM [inhibitor, full curve]
40 | COc1ccc(CNS(=O)(=O)c2cc3c(cc2C)n(C)c(=O)c(=O)n3C)cc1 | inactive
41 | NS(=O)(=O)c1ccc(N=C2C(=O)Nc3ccccc32)cc1 | inconclusive: 22.4 µM [inhibitor, partial curve]
42 | COc1ccc(CNc2ncccn2)cc1OC | inactive
43 | O=C1/C(=C/c2ccco2)Cc2ccccc21 | inconclusive: 20 µM [inhibitor, partial curve]
44 | Cc1ccc(C)c(N2CCN(C(=O)C3CCCCN3S(=O)(=O)c3ccc(F)cc3)CC2)c1 (stereo not given) | inconclusive: 28.2 µM [inhibitor, single point]
45 | Cc1nnc(NC(=O)Oc2ccccc2)s1 | inactive
46 | CCOc1ccc(NC(=O)CSc2ncc(-c3ccc(F)cc3)n2Cc2ccco2)cc1 | inconclusive: 11.2 µM [inhibitor, partial curve]
47 | Cc1cccc(N2CCN(C(=O)c3cc4c(=O)oc5ccccc5c4s3)CC2C)c1 (stereo not given) | inconclusive: 17.8 µM [inhibitor, partial curve, poor fit]
48 | COc1ccc(-n2c(C)cc(/C=C3\SC(=S)NC3=O)c2C)cc1 | inconclusive: 8.91 µM [inhibitor, partial curve]

Row | Compound | Potency
49 | O=C(CSc1ncnc2ccccc12)Nc1ccc2c(c1)OCCO2 | inactive
50 | CCOC(=O)c1ccc(N2C(=O)c3n[nH]c(C)c3C2c2cccnc2)cc1 (stereo not given) | inactive
51 | Cc1ccc(C)c(N2CCN(S(=O)(=O)c3ccc4c(c3)CCC(=O)N4)CC2)c1 | inconclusive: 15.8 µM [inhibitor, partial curve]
52 | COCCOC(=O)/C(=C/c1ccc(OC(=O)c2ccccc2)cc1)C(C)=O | inconclusive: 8.91 µM [inhibitor, partial curve]
53 | COc1ccc(C2CC(=O)C(C=NCCN3CCN(C(=S)Nc4ccccc4)CC3)=C(O)C2)cc1 (stereo not given) | inconclusive: 10 µM [inhibitor, partial curve, poor fit]
54 | Cc1oc2ccc(O)c(CN3CCOCC3)c2c1C(=O)Nc1ccccc1 | inactive
55 | COc1cc([N+](=O)[O-])ccc1NC(=O)CCCOc1cc(C)ccc1C | inconclusive: 28.2 µM [inhibitor, single point]
56 | CN1CCc2c(sc(/N=C/c3cc(C(C)(C)C)ccc3O)c2C#N)C1 | inconclusive: 39.8 µM [inhibitor, partial curve]
57 | O=C(CSc1nc2ccccc2s1)N1CCN(C(=O)c2ccco2)CC1 | inconclusive: 31.6 µM [inhibitor, partial curve]
58 | Cc1ccc(NC(=O)c2cnn(-c3ccc(C)c(C)c3)c2C2CCN(C(=O)OC(C)(C)C)CC2)c(C)c1 | inconclusive: 4.47 µM [inhibitor, partial curve, poor fit]
59 | O=C(Cn1cnc2c(nnn2Cc2ccc(Cl)cc2)c1=O)N1CCN(c2ccccc2)CC1 | inconclusive: 17.8 µM [inhibitor, partial curve]
60 | CC(=O)Nc1ccc(NC(=O)COC(=O)c2n[nH]c3ccccc23)cc1 | inconclusive: 39.8 µM [inhibitor, single point]
61 | Cc1ccc(O)c(N=NC2=C(O)CC(C)(C)CC2=O)c1 | inconclusive: 22.4 µM [inhibitor, partial curve]
62 | COc1ccc(CCC(C)Nc2ccc(F)c(F)c2)cc1 (stereo not given) | inconclusive: 31.6 µM [inhibitor, partial curve]
63 | O=C(c1cccs1)c1no[n+]([O-])c1C(=O)c1cccs1 | inconclusive: 35.5 µM [inhibitor, single point]
64 | COc1ccc(-n2nc([N+](=O)[O-])c(=NCc3ccc4c(c3)OCO4)n2O)cc1 | inconclusive: 8.91 µM [inhibitor, partial curve]
65 | C/C(=N\NC(N)=O)c1ccc(-n2ccnc2)cc1 | inconclusive: 2 µM [inhibitor, full curve, poor fit]
66 | N#Cc1c(C(F)(F)F)cc(-c2ccc(F)cc2)[nH]c1=O | inconclusive: 3.16 µM [activator, full curve, poor fit]
67 | CC(C)(C)Cc1nnc(NC(=O)Cc2ccc([N+](=O)[O-])cc2)s1 | inactive
68 | O=c1cc(CO)oc(C(Nc2cccc(C(F)(F)F)c2)c2ccccn2)c1O (stereo not given) | inconclusive: 12.6 µM [inhibitor, partial curve]
69 | O=C(CCN1CCCCC1)c1ccccc1 | inactive
70 | Cc1cc(C)c2nc(-c3ccccn3)cc(C(=O)Nc3ccc(S(=O)(=O)Nc4onc(C)c4C)cc3)c2c1 | inconclusive: 25.1 µM [inhibitor, partial curve]
